We go through 24 compounds from PubChem BioAssay AID463173 (ICCB-Longwood Screening Facility, Harvard Medical School, 2010).

Among all 52,000 compounds or so, about 1,700 (3.3%) were called active. Cut-off read from the data, not from the text of the source: active = survival mostly below about 52% (no sharp cut-off); inactive = mostly above about 56%. This is one part of the list.

In the assay the test system is Wild type. Description: growth inhibition of S. aureus wild type versus tarO mutant, primary screen, teichoic acid synthesis inhibitors, RN4220, OD600 (AID 463173). The settings on record: S. aureus RN4220 wild type/DeltatarO growth, OD600, 18 h, stronger effect = lower value, screened at 18.75 µg/mL (by protocol).
With `CCc1ccc(S(=O)(=O)Nc2cc3c(C(=O)OCc4ccccc4)c(C)oc3c3ccccc23)cc1`, the survival is inactive: 83%.
With `CCOC(=O)c1sc2ncn(CC(=O)Nc3ccc(OCC)cc3)c(=O)c2c1C`, the survival is inactive: 67%.
In the case of `Cc1c(NC(=O)c2ccc(-c3cccc([N+](=O)[O-])c3)o2)cccc1-c1nc2cc(Cl)ccc2o1` it was inactive: 84%; in that of `COc1cccc(-n2c(=O)c3sc4ccccc4c3n(CC(=O)NC3CCCCC3)c2=O)c1`, inactive: 147%.
As for `CCOC(=O)c1cc2c(=O)n3ccccc3nc2n(CCOC)c1=NC(=O)c1c(-c2ccccc2Cl)noc1C`, the figure is inactive: 150%; as for `Cn1c(=O)oc2cc(S(=O)(=O)NCCC(=O)Nc3ccc(F)cc3F)ccc21`, inactive: 74%; as for `CCN(CC)S(=O)(=O)c1ccc(OC)c(-n2cnnn2)c1`, inactive: 73%.
As for `CCOC(=O)Nc1ccc2c(c1)N(CCCN(C)C)c1ccccc1CC2`, the survival is inactive: 105%.
In the case of `Cc1cc(OCC(=O)Nc2ncn[nH]2)ccc1Cl` it was inactive: 78%.
`Cc1ccc(S(=O)(=O)N(CC(=O)Nc2ccc3c(c2)OCO3)c2cc(Cl)cc(Cl)c2)cc1`: the survival was inactive: 141%.
In the case of `COc1ccc(CNC(=O)Cn2c(=O)nc(-c3ccccc3)c3ccccc32)cc1OC` it was inactive: 68%.
For `CCCCC(=O)NC1CC(=O)N(c2ccc3c(c2)OCCO3)C1` (centres undefined), the survival was inactive: 152%.
As for `CC(C)CCNC(=O)Cc1ccc(NC(=O)N2CCCCc3ccccc32)cc1`, the figure is inactive: 70%.
As for `O=C(NCCC1=CCCCC1)c1ccc2c(c1)N(Cc1cccc(Cl)c1)C(=O)c1ccccc1S2=O` (centres undefined), the survival is inactive: 32%.
Turning to `O=C(O)CCSc1nc(-c2ccccc2)cc(=O)[nH]1`, the survival is inactive: 104%.
`CCCCn1c(SCC(=O)c2ccccc2)nc2c(sc3ccccc32)c1=O`: the survival is active: -1%.
Consider `COC(=O)c1cc2oc3ccccc3c2n1Cc1nc(-c2ccc(Cl)cc2)oc1C`, for which the survival is inactive: 80%.
`CCN(C(=O)Cn1nnc2sc3c(c2c1=O)CCC(C(C)(C)C)C3)c1cccc(C)c1` (centres undefined): the survival is inactive: 79%.
In the case of `Cc1nc2c(-c3ccc(F)cc3)c(C)nn2c(C)c1CCC(=O)N1CCN(c2ccccc2)CC1` it was inactive: 75%; in that of `CC(=O)OC1OCCOC1OC(C)=O` (centres undefined), inactive: 103%; in that of `O=C(C(F)F)N(Cc1ccccc1)Cc1ccccc1`, inactive: 101%.
In the case of `CCc1ccc(CNC(=O)c2nn(-c3ccc(C)cc3)c(=O)c3c2c2ccccc2n3C)cc1` it was inactive: 151%; in that of `COc1cc(CCC(=O)NCc2ccc3c(c2)CCN3C(=O)c2ccccc2)cc(OC)c1OC`, inactive: 129%; in that of `CC(=O)c1ccc(N2CCN(C(=O)C3CCCN(S(=O)(=O)c4ccc(Br)s4)C3)CC2)cc1` (centres undefined), inactive: 71%.
